Results as given in publication PMC4336329 (PLoS ONE, 2015).
In all, about 310,000 compounds went through this assay and about 14,000 (4.5%) showed an effect of 50% or more. Effects have a minus sign here. Some of the results follow.

biological target: human ether-à-go-go-related gene (hERG) potassium channel (human, UniProt Q12809); assay: primary screen, population patch clamp on CHO cells stably expressing hERG
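Also: peak tail current of the secondary pulse compared with the same well before compound.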

human ether-à-go-go-related gene (hERG) potassium channel, sequence (Q12809 whole entry, looked up): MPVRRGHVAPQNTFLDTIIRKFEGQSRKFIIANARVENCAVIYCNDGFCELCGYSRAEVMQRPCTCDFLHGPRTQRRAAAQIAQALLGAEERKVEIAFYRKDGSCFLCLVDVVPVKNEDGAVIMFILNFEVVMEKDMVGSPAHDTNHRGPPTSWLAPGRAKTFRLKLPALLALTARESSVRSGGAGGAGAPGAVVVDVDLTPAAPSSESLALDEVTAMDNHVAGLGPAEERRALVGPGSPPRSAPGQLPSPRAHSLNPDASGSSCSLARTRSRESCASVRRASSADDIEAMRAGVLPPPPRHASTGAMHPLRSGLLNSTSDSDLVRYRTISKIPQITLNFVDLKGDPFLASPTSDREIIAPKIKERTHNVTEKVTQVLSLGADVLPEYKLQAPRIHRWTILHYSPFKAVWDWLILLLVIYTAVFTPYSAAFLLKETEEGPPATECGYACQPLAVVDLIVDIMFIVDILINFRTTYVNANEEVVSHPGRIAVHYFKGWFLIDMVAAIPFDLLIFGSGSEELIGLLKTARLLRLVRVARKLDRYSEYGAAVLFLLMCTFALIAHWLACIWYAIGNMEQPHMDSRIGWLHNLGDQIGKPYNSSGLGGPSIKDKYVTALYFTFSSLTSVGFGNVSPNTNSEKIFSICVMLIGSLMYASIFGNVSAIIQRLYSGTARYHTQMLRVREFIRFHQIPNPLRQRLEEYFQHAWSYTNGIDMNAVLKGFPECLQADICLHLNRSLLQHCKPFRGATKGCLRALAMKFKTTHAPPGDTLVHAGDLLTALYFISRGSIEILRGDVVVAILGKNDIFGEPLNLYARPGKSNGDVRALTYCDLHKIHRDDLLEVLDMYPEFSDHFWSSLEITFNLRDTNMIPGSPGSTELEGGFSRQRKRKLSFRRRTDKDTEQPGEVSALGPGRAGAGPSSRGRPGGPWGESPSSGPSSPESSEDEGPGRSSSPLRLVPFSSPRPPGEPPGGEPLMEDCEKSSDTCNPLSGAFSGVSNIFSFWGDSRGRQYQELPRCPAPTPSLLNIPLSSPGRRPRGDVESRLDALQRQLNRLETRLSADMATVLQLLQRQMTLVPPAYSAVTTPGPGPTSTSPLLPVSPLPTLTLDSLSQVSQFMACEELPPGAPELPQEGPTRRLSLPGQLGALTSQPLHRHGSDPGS

Compound	hERG current change (%, negative = inhibition) at 10uM
CCN(CC(=O)Nc1ccccc1OC)C(=O)/C=C/c1cccs1	-6.54%
CCCNC(=O)Cn1c(=O)n(CC(=O)N2CCCCC2)c(=O)c2sccc21	17.1%
Nc1cccc2c1C(=O)N(Cc1nnc(-c3ccccc3Br)o1)C2=O	0.2%
CN(C)N1C(N)=C(C#N)C(c2ccc(Br)cc2)C2=C1CC(C)(C)CC2=O (stereo not drawn)	28.7%
O=[N+]([O-])c1ccc(O)c(/C=N/Nc2nn[nH]n2)c1	21.5%
C=CCN(CC=C)S(=O)(=O)c1ccc2nc(NC(=O)C(C)C)sc2c1	-19.9%
COc1ccccc1/C=C/CN1CCC(CO)(Cc2ccccc2)CC1	-37.9%
O=S(=O)(c1ccc(-c2ccon2)s1)N1CCOCC1	6.48%
O=C(Nc1ccc(F)c(Cl)c1)c1cc(-c2ccco2)on1	1.11%
COc1ccc(/C=C(\C#N)C(=O)OCC(=O)NCc2ccc(Cl)cc2)cc1	2.84%
COc1cccc(OCC(=O)NNC(=O)c2ccc(-c3ccccc3)cc2)c1	-5.49%
CC(C)c1ccc(N2C(=O)CC(Sc3ncn[nH]3)C2=O)cc1 (stereo not drawn)	13.9%
CCOc1ccc2nc(NC(=O)c3cc([N+](=O)[O-])ccc3N3CCOCC3)sc2c1	3.68%
COC(=O)C1CCN(C2CC(=O)N(c3cc(C)cc(C)c3)C2=O)CC1 (stereo not drawn)	1.73%
CCC(C(=O)Nc1c(C)cc(C)cc1C)N1CCCCCC1 (stereo not drawn)	2.63%
N#CC1=C(N)C(C#N)(C#N)C(c2ccncc2)C2CN(C(=O)OCc3ccccc3)CC=C12 (stereo not drawn)	0.872%
CC1CCCCN1CCCNC(=O)c1ccc2c(=O)n(CCc3ccccc3)c(=O)[nH]c2c1 (stereo not drawn)	-19.6%
CN(C)S(=O)(=O)N1CCN(C(=O)c2cccs2)CC1	7.17%
Cc1ccc(/C=N/NC(=O)c2ccc(-c3ccccc3)cc2)o1	-9.83%
Cc1occc1C(=O)N/N=C/c1c[nH]c2ccccc12	-3.53%
CCN(CC)c1ccc(NC(=O)c2ccccc2)cc1S(=O)(=O)Nc1ccccc1OC	0.622%
Cc1ccc(C)c2sc(N)nc12	22.6%

Compound	hERG current change (%, negative = inhibition) at 10uM
O=C(O)C1CC=CCC1C(=O)Nc1cccc(C(=O)N2CCCCC2)c1 (stereo not drawn)	-5.25%
Cc1ccc(NC(=O)C2CCCN(S(=O)(=O)c3c(C)noc3C)C2)cc1 (stereo not drawn)	10.2%
CC(C)c1nnc(NC(=O)C2CCCN2C(=O)Nc2ccc(F)cc2)s1 (stereo not drawn)	1.71%
C/C(=N\NS(=O)(=O)c1ccccc1)c1ccc2c(c1)OCO2	-3.88%
Cc1ccc(S(=O)(=O)N(Cc2ccccc2)c2ccccc2C(=O)NCc2cccnc2)cc1	-33.2%
CCn1cnc2c1c(=O)n(CC(=O)N1CCc3ccccc31)c(=O)n2Cc1ccccc1	17.8%
CN(C)c1ccc(-c2noc(C3CCN(S(=O)(=O)c4cccc(C(=O)O)c4)CC3)n2)cc1	9.1%
CCCn1c(NC(=O)c2cccc(S(=O)(=O)N3CCCC3)c2)nc2ccccc21	-28.8%
O=C(Nc1ccc(OCc2ccccc2)cc1)Nc1ccccc1C(=O)NCCCN1CCOCC1	1.41%
CCCCN(C(=O)CSCC(=O)Nc1ccc(OC)cc1)c1c(N)n(Cc2ccccc2)c(=O)[nH]c1=O	1.51%
CC(C)(C)c1cc(NC(=O)COC(=O)C2CC2)n(-c2ccccc2)n1	-13%
Cc1ccc(C)c(S(=O)(=O)N2CCCC2CNC(=O)C(=O)NC2CC2)c1 (stereo not drawn)	-0.659%
COC(=O)C1=C(c2c(C)noc2C)C[C@@H]2CC[C@H]1N2C(=O)NC1Cc2ccccc2C1	-9.79%
Cc1ccc2[nH]c3c(N4CCN(Cc5ccccc5)CC4)ncnc3c2c1	-72.3%
N/C(Cc1cccs1)=N\OC(=O)COc1ccccc1	3.16%
N#CCCn1cc(/C=N/NC(N)=S)c(-c2ccc(-c3ccccc3)cc2)n1	8%
CC(C)(C)OC(=O)NCCCC[C@H](NC(=O)c1nc[nH]c1C(=O)N1CCc2ccccc2C1)C(=O)OC(C)(C)C	-8.58%
O=c1[nH]c(Nc2ccc3c(c2)OCCO3)nnc1Cc1ccc(Cl)cc1	33%
CCCN1C2CCCC1CC(NC(=O)Nc1ccc(C(C)C)cc1)C2 (stereo not drawn)	12.8%
COC(=O)c1cc(C(=O)OCC(=O)NCc2ccc3c(c2)OCO3)cc([N+](=O)[O-])c1	5.12%
O=C(COC(=O)Cc1ccc(S(=O)(=O)N2CCOCC2)s1)NCCc1ccccc1	-1.49%
CC(O)CN1C(=O)C(CC(=O)Nc2ccc(Cl)cc2)SC1=Nc1ccccc1 (stereo not drawn)	4.32%

Compound	hERG current change (%, negative = inhibition) at 10uM
COc1ccc(CCNc2oc(-c3ccc(C)cc3)nc2C#N)cc1OC	13.6%
CN(CC(=O)Nc1c(Cl)cccc1Cl)C(=O)c1ccccc1Cc1ccccc1	-20.7%
COC(=O)c1c(C)[nH]c(C(=O)C(C)OC(=O)C2CC(=O)N(c3ccc(C)cc3)C2)c1C (stereo not drawn)	-14.5%
CN1C(=O)CC(P(=O)(c2ccccc2)c2ccccc2)N(C)C1=O (stereo not drawn)	17.1%
CCN(Cc1ccncc1)Cc1ccc(Br)cc1.O=C(O)C(=O)O	-5.38%
Cc1ccc(C2C3=C(CC(C)(C)CC3=O)N=C3c4ccccc4C(=O)C32)cc1 (stereo not drawn)	-12%
CCOC(=O)c1nncc(-c2ccccc2)n1	9.45%
COc1ccc2[nH]c3c(=O)n(/N=C/c4ccc(OC)c(CN5CCCC5)c4)c(C)nc3c2c1	-45.3%
COc1ccc(-c2nnn(CC(=O)OC3CCCCC3)n2)cc1OC	-8%
COc1ccc(NCc2n[nH]c(=O)c3ccccc23)cc1	4.37%
CN1c2ccccc2C(C)(C)C12CC(c1ccc(S(=O)(=O)N3CCCCC3)cc1)=NO2 (stereo not drawn)	8.51%
CSc1cccc(NC(=S)N2CCCN(Cc3ccccc3F)C2)c1	-20.3%
CC(C)(C)OC(=O)N1CCC(NC(=O)c2[nH]cnc2C(=O)Nc2ccccc2)CC1	-15%
CCOc1ccc(S(=O)(=O)NCCCn2ccnc2)cc1	-9.31%
CCN1CCc2c(sc(NC(=O)c3ccc(S(=O)(=O)N(C)CC4CCCO4)cc3)c2C(N)=O)C1.Cl (stereo not drawn)	-17.8%
O=C(O)CSC1c2ccccc2C(=O)N1Cc1ccccc1 (stereo not drawn)	11.1%
CCN(CC)S(=O)(=O)c1ccc(C(=O)NN(C)C2=NS(=O)(=O)c3ccccc32)cc1	14.9%
CN(C)c1ccc(C2C3C=CC(C3)C2(C#N)C(=O)O)c(Br)c1 (stereo not drawn)	12.2%
CCC(C)Sc1nc2c(c(=O)n1C)SC(C)C2 (stereo not drawn)	-17.5%
N#C/C(=C\c1ccc2c(c1)OCCO2)C(=O)NC1CCCCC1	3.05%
CCCNC(=O)COC(=O)c1cccnc1Nc1ccccc1F	-9.21%
CN(CCc1ccccn1)c1ncnc2[nH]ncc12	0.429%

Compound	hERG current change (%, negative = inhibition) at 10uM
CCOC(=O)N/N=C/C=C/c1ccccc1	1.98%
Cc1cc(C(=O)NCCCn2ccnc2)cs1	-22.1%
CCOc1cc(C2C(C(=O)OC)=CN(Cc3ccc(Cl)cc3)C=C2C(=O)OC)ccc1O	-2.9%
Cc1ccoc1C(=O)NCc1occc1C(=O)O	-5.26%
COc1cc(C2SC(C)C(=O)N2CCc2ccccc2)cc(OC)c1OC (stereo not drawn)	-2.74%
COc1ccc(CCN(C)C2CCCN(C(=O)c3sccc3C)C2)cc1OC (stereo not drawn)	-55%
Nc1nonc1-c1noc(COc2ccccc2Cl)n1	-20.4%
Cc1ccc(C(=O)NN(CCC#N)C2=NS(=O)(=O)c3ccccc32)cc1	2.12%
C/C(=N/NC(=O)c1ccc2c(c1)OCO2)c1ccc(NC(=O)C(F)(F)F)cc1	-3.67%
Oc1cc2ccccc2nc1-c1ccccc1Cl	10.5%
O=C(NCc1ccco1)c1ccc(CS(=O)(=O)Cc2ccc(Cl)cc2)o1	-22.1%
COc1ccccc1N1CCN(C(CNC(=O)c2ccco2)c2cccnc2)CC1 (stereo not drawn)	-6.27%
Br.CCCN1CCc2cc(O)cc3c2[C@H]1Cc1ccc(O)c(O)c1-3.O	-57.8%
CN(C)C(=O)c1cnc(Sc2ncc(C(F)(F)F)cc2Cl)n1C	1.29%
CCNS(=O)(=O)c1ccc(CCC(=O)NCc2ccccc2)cc1	-19.6%
O=C(CCc1cccc(Cl)c1)NC1CCCN(Cc2ccccc2F)C1 (stereo not drawn)	-28.3%
Cc1ccc(-c2onc3ccc(C4(C)OCCO4)cc23)cc1	1.79%
Cc1ccc2oc(C(=O)NCC(c3ccco3)N(C)C)c(C)c2c1 (stereo not drawn)	-8.52%
Clc1cc(Cl)c(-c2cc(Cl)c(Cl)cc2Cl)cc1Cl	18.2%
CCCNC(=O)C1CCN(S(=O)(=O)c2cccc3nonc23)CC1	-3.97%
CC1CCCCC1NC(=O)COC(=O)c1ccc(S(=O)(=O)N2CCOCC2)cc1 (stereo not drawn)	13.6%
